Laboratory results taken from PubChem BioAssay AID624417 (National Center for Advancing Translational Sciences (NCATS), 2012).
Where “and” joins values, the source holds several entries; their conditions need not be identical. Equal entries are not always repeated. Out of some 410,000 compounds screened, about 6,400 (1.6%) were called active. Inconclusive results, whose numbers are uncertain, are shown with a selection of clear calls. The call rests on the fitted dose curve; in most records, active means well fitted inhibition curve with a large enough effect; inconclusive means small, poorly fitted or top-dose-only effect; inactive means no such curve, though single readings can be large or run the other way. Potencies beside an inconclusive call are fits to weak or partial responses and may not hold up.

Biological target: Glucagon-like peptide 1 receptor (Homo sapiens) (UniProt P43220)
UniProt P43220, sequence (P43220 whole entry, looked up): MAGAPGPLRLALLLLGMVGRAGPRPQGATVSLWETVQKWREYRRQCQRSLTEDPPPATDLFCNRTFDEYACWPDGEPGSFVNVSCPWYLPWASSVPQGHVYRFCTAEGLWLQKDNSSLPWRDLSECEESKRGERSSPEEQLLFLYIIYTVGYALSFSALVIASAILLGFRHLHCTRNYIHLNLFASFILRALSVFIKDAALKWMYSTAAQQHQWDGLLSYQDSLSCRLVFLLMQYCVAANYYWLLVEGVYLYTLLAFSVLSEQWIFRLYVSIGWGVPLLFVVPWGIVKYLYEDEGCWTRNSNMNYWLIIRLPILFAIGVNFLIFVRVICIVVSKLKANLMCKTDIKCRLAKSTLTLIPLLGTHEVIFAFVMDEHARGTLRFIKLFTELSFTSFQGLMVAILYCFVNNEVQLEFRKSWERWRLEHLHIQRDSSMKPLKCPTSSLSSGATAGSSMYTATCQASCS
Test: qHTS of GLP-1 Receptor Inverse Agonists (Inhibition Mode); further: nearly all actives have a fitted effect of over 55% in size
Conditions: HEK293 GLP-1R CRE-luciferase, luminescence, 24 h, GLP-1R form is constitutively active; series mostly up to 38.3 µM
Procedure, shortened: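 GLP-1R inverse agonism mode: basal reporter luminescence in engineered HEK293 cells measured after one day of compound exposure at 37 deg C, with a 12 min room-temperature detection step.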
Potency means the concentration at half of the fitted maximal effect; tags describe the fitted curve by direction and shape.

Potency, active:
O=c1c2ccccc2nc(SCc2ccccc2)n1Cc1ccco1 11.2 µM

Potency, inconclusive:
Clc1ccc2nnnc(-c3ccccc3)c2c1 10 µM [inhibitor, single point]
O=C(Nc1ccncc1)Nc1cccc(Cl)c1Cl 10 µM [inhibitor, partial curve, poor fit]
CC(C)Oc1nc(-c2ccccc2Cl)nc2ccccc12 10 µM [inhibitor, partial curve, poor fit]
CCOC(=O)[C@]12CCCC=C1N(Cc1ccc(Cl)cc1Cl)C(=O)[C@H](CC(=O)NCc1cccc(C(F)(F)F)c1)C2 10 µM [inhibitor, partial curve]
CCCc1nc(SCC(=O)c2ccc(F)cc2)c2ccccc2n1 28.2 µM [inhibitor, single point]
Cc1oc2ccc(NS(=O)(=O)c3ccccc3)cc2c1C(=O)Nc1ccccc1 14.1 µM [inhibitor, single point]
Cc1ccc(P(=O)(c2ccc(C)cc2)[C@@H](NC(c2ccccc2)c2ccccc2)c2ccccc2)cc1 11.2 µM [inhibitor, partial curve, poor fit]
CC1(C)N=C(SCc2ccc(Cl)cc2)c2ccccc2N1 11.2 µM [inhibitor, partial curve]
CC(=O)C1=C(NC(=O)c2ccccc2F)C[C@@H]2[C@H]1C2(C)C 5.01 µM [inhibitor, full curve, poor fit]
Cc1ccc(NC(=O)COC(=O)c2cccc(OC(F)F)c2)cc1S(=O)(=O)N1CCCCC1 11.2 µM [inhibitor, single point]
Cc1ccc(C2(C)NC(=O)N(CC(=O)Nc3cc(S(=O)(=O)N4CCCCC4)ccc3OC(C)C)C2=O)cc1 (centres undefined) 25.1 µM [inhibitor, single point]
Cc1c(C(=O)NCc2ccc3c(c2)OCO3)oc2ccc(S(=O)(=O)N3CCCCCC3)cc12 14.1 µM [inhibitor, partial curve, poor fit]
O=C(Nc1ccc(CN2CCCCC2)cc1)c1c(F)c(F)c(F)c(F)c1F 28.2 µM [inhibitor, single point]
O=C(CCSc1ccccc1)Nc1nc2c(s1)COc1ccccc1-2 8.91 µM [inhibitor, single point]
COCCN(C(=S)Nc1ccc(OC)c(Cl)c1)C1CCN(C(C)C)CC1 1.41 µM [inhibitor, full curve]
COc1ccc(Cl)cc1Cn1c(C)c(C(=O)NCc2cccc([N+](=O)[O-])c2)sc1=O 22.4 µM [inhibitor, single point]
CCN1C(=O)/C(=C\N2CCCCCC2)SC1=S 28.2 µM [inhibitor, single point]
COc1ccc(C2C3C=CCC(c4cccc(-c5ccc(C)cc5)c4)C3C(=O)N2Cc2ccccc2)cc1Cl (centres undefined) 10 µM [inhibitor, partial curve]
COc1cc(CNCCCCO)ccc1OCc1ccccc1F 7.94 µM [inhibitor, partial curve, poor fit]
CCOC(=O)c1[nH]c2c(c1Cc1ccccc1C)C(=O)CC(c1ccccc1)C2 (centres undefined) 3.16 µM [inhibitor, full curve, poor fit]
Cc1cccc(C)c1NC(=O)CCCSc1nnc(-c2ccco2)n1-c1ccccc1 11.2 µM [inhibitor, partial curve, poor fit]
CC(C)NC(=O)CSc1nnc(-c2ccc(C(C)(C)C)cc2)n1C 28.2 µM [inhibitor, single point]
COc1cc(NC(=O)C2CCCN(c3ncccn3)C2)cc(OC)c1 (centres undefined) 28.2 µM [inhibitor, single point]
CCC(=O)N1CCCc2cc(S(=O)(=O)N3CCCc4ccccc43)ccc21 28.2 µM [inhibitor, single point]
Cc1ccc(NC(=O)CNCc2ccccc2)cc1Br 28.2 µM [inhibitor, single point]
CCC/C=C/c1ccc(CN2C(C)C(=O)N(Cc3cn(CCC4OCCCO4)nn3)CCS2(=O)=O)cc1 (centres undefined) 28.2 µM [inhibitor, single point]
Cc1ccc(-c2nc3cccc(C)n3c2Nc2ccc3c(c2)OCCO3)cc1 11.2 µM [inhibitor, single point]
CSc1nnc(Cn2c(=O)sc3ccccc32)n1-c1ccccc1 7.08 µM [inhibitor, partial curve, poor fit]
NCCNc1ccc(C(=O)N2c3ccccc3Sc3ccccc32)cc1[N+](=O)[O-] 25.1 µM [inhibitor, partial curve, poor fit]
CC1CCN(CCCCOc2ccccc2-c2ccccc2)CC1 11.2 µM [inhibitor, partial curve, poor fit]
COc1ccc(OC(F)(F)F)cc1CC1(C)C(=O)Nc2c(Cl)ccc(Cl)c21 (centres undefined) 11.2 µM [inhibitor, partial curve]
CC(OCC(O)CN1CCN(S(=O)(=O)c2ccc(Cl)cc2)CC1)c1ccc(Cl)cc1 (centres undefined) 11.2 µM [inhibitor, partial curve, poor fit]
CC(=O)c1ccc(C(=O)N2CCC(CO)(Cc3cccc(C(F)(F)F)c3)CC2)cc1 28.2 µM [inhibitor, single point]
COc1ccc(/C=C/C(=O)C23CC4CC(CC(C4)C2)C3)cc1CN1CCOCC1 0.501 µM [inhibitor, full curve, poor fit]
COc1ccc(COC(=O)c2ccc(Cl)c(S(=O)(=O)N3CCOCC3)c2)cc1F 31.6 µM [inhibitor, single point]
O=C(CSCc1ccccc1)N1CCc2ccccc21 28.2 µM [inhibitor, single point]
Cc1ccc(C(C)C)c(OCC(=O)NS(=O)(=O)c2ccc(Cl)cc2)c1 10 µM [inhibitor, partial curve, poor fit]
Cc1ccccc1CN(C)CC(=O)Nc1c(C)cccc1C(C)C 11.2 µM [inhibitor, partial curve, poor fit]
COc1ccccc1-n1c(-c2ccccc2)c[n+]2c1CCc1ccccc1-2 1.78 µM [inhibitor, partial curve, poor fit] and 5.62 µM [inhibitor, full curve, poor fit]
CN(CC(=O)Nc1ccc(F)cc1)C(=O)COc1ccccc1Cc1ccccc1 7.94 µM [inhibitor, partial curve, poor fit]
CC(C)Oc1cccc(NC(=O)C2(C)CCN2C(C)C)c1 (centres undefined) 28.2 µM [inhibitor, single point]
O=C(Nc1cccc(C(F)(F)F)c1)c1cc(S(=O)(=O)N2CCCCC2)ccc1N1CCOCC1 28.2 µM [inhibitor, single point]
CC(Oc1ccc(NC(=O)c2ccco2)cc1)C(=O)N1c2ccccc2CC1C (centres undefined) 10 µM [inhibitor, partial curve, poor fit]
Cc1cc(C(=O)N2CCN(c3ccccc3F)CC2)c2c(C)nn(-c3ccccc3)c2n1 28.2 µM [inhibitor, single point]
CN(C)/N=C/c1ccc(Sc2ccccc2[N+](=O)[O-])o1 12.6 µM [inhibitor, single point]
CCOc1ccc2ccccc2c1/C=N/NC(=O)CNC(=O)c1ccccc1O 10 µM [inhibitor, partial curve, poor fit]
CCOC(=O)C(C(=O)c1ccccc1)C(c1ccccc1)c1nccc2ccccc12 (centres undefined) 5.01 µM [inhibitor, full curve, poor fit]
CC(C)N(C(=O)[C@H]1C[C@H](CC(=O)NC(C)(C)C)C(=O)N2CCc3c([nH]c4cc(-c5ccco5)ccc34)[C@]12C)C(C)C 12.6 µM [inhibitor, single point]

Potency, inactive:
CN(CCOc1ccccc1)Cc1ccccc1
Cc1c(C(=O)N2CCCCCC2)c(S(=O)(=O)Nc2cccc(C#N)c2)c(C)n1C
COc1ccccc1C(=O)NC(=S)NNC(=O)c1sc2ccccc2c1Cl
Cc1ccc2nc(-c3ccsc3)c(NC3CCCC3)n2c1
O=C(O)c1cccc2c1/C(=N/Nc1ccc([N+](=O)[O-])cc1[N+](=O)[O-])c1ccccc1-2
O=[N+]([O-])c1ccc2n[nH]nc2c1
COc1cc(OC)c(OC)cc1/C=C1\Oc2cc(OS(C)(=O)=O)ccc2C1=O
Cc1c(-c2ccco2)[n+](=O)c2c(n1[O-])CCCCC2
O=C(O)c1ccccc1NN=Cc1ccccc1
COc1ccc(-c2cc3nc(C)cc(-c4ccc(OC)cc4)n3n2)cc1
Cc1cc(C)cc(Cn2cc(CN3CC(N4CCN(Cc5ccccc5F)CC4)CS3(=O)=O)nn2)c1 (centres undefined)
N#C/C(=C\c1ccc(N2CCOCC2)o1)C(=O)NCC1CCCO1 (centres undefined)
CCc1ccccc1NC(=O)Cn1c(=O)n(CCc2ccccc2)c(=O)c2sc3ccccc3c21
CC(C)c1cccc(C(C)C)c1OCCCCN1CCCC1
CCC1(c2ccc(Cl)cc2)NC(=S)N(c2ccccc2)N1 (centres undefined)
